Test results reported in article PMC3169550.
No constants are given. Whether binding was seen depends on the method and setting. In cells and extracts the contact can be indirect. Some entries that bind do so weakly or less than the wild type. Sequences can lack the tags named with a protein.

Protein sequences, listed by entry. Tags and fused reporters are not part of them.
UniProt Q9QYP6: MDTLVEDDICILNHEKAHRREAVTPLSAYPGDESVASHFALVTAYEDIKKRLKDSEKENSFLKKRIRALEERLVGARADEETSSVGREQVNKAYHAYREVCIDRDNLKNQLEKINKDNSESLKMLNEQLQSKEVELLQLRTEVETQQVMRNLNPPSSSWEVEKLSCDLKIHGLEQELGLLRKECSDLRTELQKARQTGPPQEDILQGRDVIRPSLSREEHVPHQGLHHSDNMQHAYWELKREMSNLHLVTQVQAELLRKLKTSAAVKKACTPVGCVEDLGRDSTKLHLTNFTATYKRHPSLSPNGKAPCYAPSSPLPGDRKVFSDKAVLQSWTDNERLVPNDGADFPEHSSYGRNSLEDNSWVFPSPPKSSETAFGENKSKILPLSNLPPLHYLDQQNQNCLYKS
UniProt A2A9T0: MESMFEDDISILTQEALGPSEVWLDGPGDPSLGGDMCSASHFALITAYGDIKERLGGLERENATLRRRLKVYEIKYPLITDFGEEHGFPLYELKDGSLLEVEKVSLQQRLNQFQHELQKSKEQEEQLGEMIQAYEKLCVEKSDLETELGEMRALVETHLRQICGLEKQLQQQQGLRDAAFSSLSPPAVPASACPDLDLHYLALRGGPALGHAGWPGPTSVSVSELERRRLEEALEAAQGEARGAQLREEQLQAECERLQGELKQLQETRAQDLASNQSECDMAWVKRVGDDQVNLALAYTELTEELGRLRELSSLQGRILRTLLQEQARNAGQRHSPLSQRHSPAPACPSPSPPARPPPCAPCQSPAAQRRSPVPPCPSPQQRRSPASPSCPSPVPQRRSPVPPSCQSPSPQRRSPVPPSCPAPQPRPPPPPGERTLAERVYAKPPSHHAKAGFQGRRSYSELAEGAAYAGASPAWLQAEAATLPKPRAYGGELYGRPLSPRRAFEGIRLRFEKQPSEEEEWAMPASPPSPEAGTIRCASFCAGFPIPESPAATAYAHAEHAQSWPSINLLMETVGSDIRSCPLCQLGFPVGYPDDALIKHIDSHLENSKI

T1: Myc-tagged TBK1 wt (murine) (UniProt Q9WUN2)
T1 sequence: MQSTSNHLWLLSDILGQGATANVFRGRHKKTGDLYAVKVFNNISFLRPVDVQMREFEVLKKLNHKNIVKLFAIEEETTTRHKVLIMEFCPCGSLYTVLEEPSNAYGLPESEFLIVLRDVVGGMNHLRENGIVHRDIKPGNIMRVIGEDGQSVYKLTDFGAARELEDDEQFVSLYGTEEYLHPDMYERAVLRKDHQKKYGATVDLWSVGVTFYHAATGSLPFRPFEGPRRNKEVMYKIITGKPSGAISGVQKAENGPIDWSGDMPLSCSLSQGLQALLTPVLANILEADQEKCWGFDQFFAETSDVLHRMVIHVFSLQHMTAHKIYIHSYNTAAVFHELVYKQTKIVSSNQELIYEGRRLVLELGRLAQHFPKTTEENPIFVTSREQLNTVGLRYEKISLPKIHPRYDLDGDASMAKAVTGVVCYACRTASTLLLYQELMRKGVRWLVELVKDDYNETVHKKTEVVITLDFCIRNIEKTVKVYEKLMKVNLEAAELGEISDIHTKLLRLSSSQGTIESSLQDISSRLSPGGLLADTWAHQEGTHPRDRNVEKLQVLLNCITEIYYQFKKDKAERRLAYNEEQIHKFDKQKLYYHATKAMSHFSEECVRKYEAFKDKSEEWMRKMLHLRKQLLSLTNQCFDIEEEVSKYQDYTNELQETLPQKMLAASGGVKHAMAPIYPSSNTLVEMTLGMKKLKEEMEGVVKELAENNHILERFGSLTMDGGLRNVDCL

T2: Myc-tagged TBK1 E706K (murine) (UniProt Q9WUN2)
T2 sequence: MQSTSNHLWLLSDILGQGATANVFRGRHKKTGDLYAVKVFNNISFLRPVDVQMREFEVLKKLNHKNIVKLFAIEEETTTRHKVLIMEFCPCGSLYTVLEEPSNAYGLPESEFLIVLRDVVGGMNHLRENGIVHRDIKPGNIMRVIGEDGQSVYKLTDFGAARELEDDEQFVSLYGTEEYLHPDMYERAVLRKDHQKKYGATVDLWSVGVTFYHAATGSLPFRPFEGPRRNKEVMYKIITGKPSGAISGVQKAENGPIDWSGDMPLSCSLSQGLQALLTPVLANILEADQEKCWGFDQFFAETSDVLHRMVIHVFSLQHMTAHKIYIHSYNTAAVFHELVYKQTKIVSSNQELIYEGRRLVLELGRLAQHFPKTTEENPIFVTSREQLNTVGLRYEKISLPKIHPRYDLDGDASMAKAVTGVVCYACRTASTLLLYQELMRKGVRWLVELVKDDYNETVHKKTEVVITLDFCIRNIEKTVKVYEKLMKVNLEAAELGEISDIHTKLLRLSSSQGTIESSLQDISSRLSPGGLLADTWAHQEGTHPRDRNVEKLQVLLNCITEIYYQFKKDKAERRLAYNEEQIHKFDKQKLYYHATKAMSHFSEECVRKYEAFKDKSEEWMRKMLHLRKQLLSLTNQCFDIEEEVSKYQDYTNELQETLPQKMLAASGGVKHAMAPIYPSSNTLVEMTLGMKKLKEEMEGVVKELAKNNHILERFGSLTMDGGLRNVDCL

T3: Myc-tagged TBK1 L693A (murine) (UniProt Q9WUN2)
T3 sequence: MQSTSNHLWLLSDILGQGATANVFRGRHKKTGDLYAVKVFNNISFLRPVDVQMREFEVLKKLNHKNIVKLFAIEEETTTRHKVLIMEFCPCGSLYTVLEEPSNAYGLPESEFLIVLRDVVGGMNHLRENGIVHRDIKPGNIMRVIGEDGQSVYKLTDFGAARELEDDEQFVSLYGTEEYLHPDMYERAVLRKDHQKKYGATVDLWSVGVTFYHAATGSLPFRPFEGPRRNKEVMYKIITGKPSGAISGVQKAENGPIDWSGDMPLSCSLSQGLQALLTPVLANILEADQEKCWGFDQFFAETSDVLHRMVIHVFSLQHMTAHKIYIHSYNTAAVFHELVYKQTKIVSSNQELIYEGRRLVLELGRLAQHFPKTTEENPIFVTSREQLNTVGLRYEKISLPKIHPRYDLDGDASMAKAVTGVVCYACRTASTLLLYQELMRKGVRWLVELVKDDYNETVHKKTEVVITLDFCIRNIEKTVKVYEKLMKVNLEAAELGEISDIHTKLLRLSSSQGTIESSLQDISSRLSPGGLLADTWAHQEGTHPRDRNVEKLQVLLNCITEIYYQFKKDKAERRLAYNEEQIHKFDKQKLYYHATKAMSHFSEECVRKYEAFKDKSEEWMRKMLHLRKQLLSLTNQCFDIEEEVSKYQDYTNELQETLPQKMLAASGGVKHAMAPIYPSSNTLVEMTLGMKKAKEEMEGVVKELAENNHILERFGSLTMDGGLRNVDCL


How the values were obtained:
[1] = molecular target: T1, Myc-tagged TBK1 wt (murine); test: co-IP; competition: proteins expressed one by one in HEK293 cells, cell extracts mixed in stated volumes (one adaptor constant, the other increasing), anti-Myc agarose, immunoblotting with anti-Myc and anti-V5
[2] = molecular target: T2, Myc-tagged TBK1 E706K (murine); test: co-IP; Myc-tagged TBK1 constructs coexpressed with V5-tagged adaptors in HEK293 cells; Frackelton buffer (10 mM Tris/HCl pH 7.5, 50 mM NaCl, 1% Triton X-100); anti-Myc agarose or anti-V5 agarose, 2 h at 4°C; immunoblotting with anti-Myc and anti-V5
[3] = molecular target: T3, Myc-tagged TBK1 L693A (murine); test: as above

Row | binding [1] | binding [2] | binding [3] | Molecule
1 | binds | binds | binds | V5-tagged NAP1 (from UniProt Q9QYP6 1-405)
2 | binds | binds | binds | V5-tagged Sintbad (from UniProt A2A9T0 1-611)
3 | binds | binds | no binding | V5-tagged TANK (protein, UniProt P70347 1-448) MSLKRHSLRRNACHLETRAGIPTILYSDATGQRGMDKNIGEQLNRAYEAFRQACMDRDSAVRELQQKQTENYEQRIREQQEQLSFQQNLIDRLKSQLLLVDSSRDNSYGYVPLLEDSDRRKNNLTLDEPHDKVKLGTLRDKQSKVRRQEVSSGKESAKGLNIPLHHERDNIEKTFWDLKEEFHRICLLAKAQKDHLSKLNIPDIATDTQCSVPIQCTDKTEKQEALFKPQAKDDINRGMSCVTAVTPRGLGRDEEDTSFESLSKFNVKFPPMDNDSIFLHSTPEAPSILAPATPETVCQDRFNMEVRDNPGNFVKTEETLFEIQGIDPITSAIQNLKTTDKTNPSNLRATCLPAGDHNVFYVNTFPLQDPPDAPFPSLDSPGKAVRGPQQPFWKPFLNQDTDLVVPSDSDSELLKPLVCEFCQELFPPSITSRGDFLRHLNTHFNGET
